In all, about 310,000 compounds went through this assay and about 14,000 (4.5%) showed an effect of 50% or more. The effect is printed as a negative number. This is one part of the list.
Each compound was assayed against human ether-à-go-go-related gene (hERG) potassium channel (human, UniProt Q12809) (assay: primary screen, population patch clamp on CHO cells stably expressing hERG).
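Note: peak tail current of the secondary pulse compared with the same well before compound.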

Chain of human ether-à-go-go-related gene (hERG) potassium channel (Q12809 whole entry, looked up): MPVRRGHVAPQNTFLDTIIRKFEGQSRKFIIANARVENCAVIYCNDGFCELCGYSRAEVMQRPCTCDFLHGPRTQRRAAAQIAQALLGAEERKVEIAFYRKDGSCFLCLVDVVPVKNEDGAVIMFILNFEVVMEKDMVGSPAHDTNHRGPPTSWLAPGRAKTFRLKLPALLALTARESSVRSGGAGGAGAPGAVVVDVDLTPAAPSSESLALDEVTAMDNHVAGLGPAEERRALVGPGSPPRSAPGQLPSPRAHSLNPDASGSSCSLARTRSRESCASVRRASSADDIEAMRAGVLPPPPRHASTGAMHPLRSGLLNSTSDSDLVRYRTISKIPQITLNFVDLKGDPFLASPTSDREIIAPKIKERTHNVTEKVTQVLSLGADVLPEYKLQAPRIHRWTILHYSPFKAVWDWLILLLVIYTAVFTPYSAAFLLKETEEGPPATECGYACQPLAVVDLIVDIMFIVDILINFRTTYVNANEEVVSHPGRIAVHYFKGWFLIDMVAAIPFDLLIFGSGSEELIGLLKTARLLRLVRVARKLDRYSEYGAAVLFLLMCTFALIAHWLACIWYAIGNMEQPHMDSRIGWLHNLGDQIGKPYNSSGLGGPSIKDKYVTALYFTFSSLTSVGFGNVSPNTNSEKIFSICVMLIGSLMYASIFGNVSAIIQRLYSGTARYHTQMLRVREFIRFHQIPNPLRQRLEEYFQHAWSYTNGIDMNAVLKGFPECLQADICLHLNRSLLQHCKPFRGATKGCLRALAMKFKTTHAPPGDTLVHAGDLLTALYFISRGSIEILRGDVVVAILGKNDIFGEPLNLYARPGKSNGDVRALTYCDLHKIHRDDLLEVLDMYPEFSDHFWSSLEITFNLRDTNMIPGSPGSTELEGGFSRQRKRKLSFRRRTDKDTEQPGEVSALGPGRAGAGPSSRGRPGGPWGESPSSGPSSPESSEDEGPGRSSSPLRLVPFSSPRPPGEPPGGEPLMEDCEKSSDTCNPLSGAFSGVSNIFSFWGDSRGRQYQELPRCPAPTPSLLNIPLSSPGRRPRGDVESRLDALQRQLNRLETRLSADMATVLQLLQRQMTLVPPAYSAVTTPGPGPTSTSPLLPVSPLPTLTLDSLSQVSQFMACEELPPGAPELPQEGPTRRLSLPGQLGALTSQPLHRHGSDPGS

Structure (SMILES) | hERG current change (%, negative = inhibition) at 10uM [%]
Cc1nnc(SCc2cc(=O)[nH]c(/N=C(\N)Nc3ccccc3Sc3ccccc3)n2)s1 | -11.1
c1ccc2nc(-c3ccc(N4CCOCC4)cc3)ccc2c1 | 4.34
Cc1ccn2c(C(=O)CSc3ccc(Cl)cc3)c(C)nc2c1 | 7.28
Cc1ccc(COn2nnc3ccc(S(=O)(=O)N4CCOCC4)cc32)cc1 | -27.2
Cc1c(CCC(=O)O)c(=O)oc2cc(OCc3cccc(F)c3)ccc12 | 32.1
CN1C(C(=O)Nc2ccccn2)=C(O)c2sccc2S1(=O)=O | 9.38
CC(=O)Nc1ccc(N2CCCCC2)c(C(=O)Nc2cccc(C)c2)c1 | -18.1
Cc1nn(CC(=O)Nc2ccc(N(C)C)cc2)c(C)c1[N+](=O)[O-] | 7.71
O=C(NCc1nnc(SCc2ccc(F)cc2)n1-c1ccc(F)cc1)C12CC3CC(CC(C3)C1)C2 | -21.7
CCOc1ccc(S(=O)(=O)N2CCCCCC2)cc1 | -8.37
O=c1cc(-c2ccccc2)[nH]c2ccccc12 | -11.4
O=c1[nH]cccc1-c1nc2ccccc2n1Cc1cccc(Cl)c1 | -45.3
COc1ccc(-n2c(=S)[nH]c3cc(C(=O)NC4CCCCC4)ccc3c2=O)c(OC)c1 | -1.84
O=C(Cc1ccc(F)cc1)N1CCC(CC2CC(c3cccc(Br)c3)=NO2)(C(=O)NCC2CCCCC2)CC1 (stereo not drawn) | -8.67
CN(C(=O)Nc1ccc(Cl)cc1Cl)C1CCCC1 | -18.6
Cl.Nc1cc(F)ccc1N1CCCCCC1 | 19.7
[O-][Cl+3]([O-])([O-])[O-].c1ccc(C[n+]2ccccc2)cc1 | -3.58
O=C(CN1CCOCC1)N1N=C(c2cccs2)CC1c1cccs1 (stereo not drawn) | 18.9
CCOC(=O)c1c(C)n(C)c2cc(Br)c(C)cc12 | 23.3

Structure (SMILES) | hERG current change (%, negative = inhibition) at 10uM [%]
COc1ccc(NC(=O)CCN2C(=O)C3CC=C(Cl)CC3C2=O)cc1 (stereo not drawn) | 0.455
O=S(=O)(Nc1cccc(-n2cnnn2)c1)c1cnc(Cl)c(Cl)c1 | 2.67
O=C(O)CN1CCN(Cc2ccccc2Cl)C1=O | 8.99
c1cncc(Nc2nc(-c3ccncc3)cs2)c1 | -15.7
CCOC(=O)c1cc2cc3ccccc3cc2[nH]1 | -20.2
CN1CCc2c(C#N)c(N3CCOCC3)nc(NCC3CCCO3)c2C1 (stereo not drawn) | 11.5
CCCNC(=O)Cn1c(=O)oc2ccccc21 | -3.03
Cc1ccc(NC(=O)c2ccc3c(c2)OCCO3)cc1S(=O)(=O)Nc1cccc(Cl)c1 | -10.5
O=C1COc2ccc(C(=O)COC(=O)/C=C/c3cccc(F)c3)cc2N1 | 6.4
COc1ccc(Cl)cc1NC(=O)CN(C)C(=O)c1ccc(COc2ccccc2)cc1 | 13.5
Cc1nc([N+](=O)[O-])c(Sc2nc3ccccc3n2C)n1Cc1ccccc1 | -9.78
CC1CC(C)CN(CCCNS(=O)(=O)c2ccc3c(c2)CCN3C(=O)C2CC2)C1 (stereo not drawn) | -13.9
CCOC(=O)N1CCN(C(=O)c2ccc(OCC)c(OCC)c2)CC1 | -9.83
CC1CCCN(CC(=O)N2c3ccccc3Sc3ccccc32)C1 (stereo not drawn) | 1.98
N#C/C(=C\c1ccc(Cl)cc1)C(=O)Nc1cccnc1 | 10.6
CCOc1ccc(Nc2nc(N)c([N+](=O)[O-])c(N3CCN(C)CC3)n2)cc1 | -48.3
CN(C)c1ccc(/C=N/NC(=O)CN2CCCCC2)cc1Br | -32
Cc1ccc(C(=O)Nc2nnc(-c3ccco3)o2)cc1C | 3.36
Cc1cc(C(C)(C)C)c(O)c(C(C)(C)C)c1 | 17.2

Structure (SMILES) | hERG current change (%, negative = inhibition) at 10uM [%]
Cn1c(SCc2ccccc2F)nc2cccnc21 | -17.4
COc1cc(/C=C/C(=O)O)cc(S(=O)(=O)Nc2ccc3c(c2)CCC3)c1OC | 24.5
COCCn1c(-c2ccc(Br)cc2)nc2oc3cc(OC)ccc3c(=O)c2c1=O | -14.7
CCCn1nnc(NC(=O)c2sc3ccccc3c2Cl)n1 | -38.6
CC(=O)c1sc(=S)n(Cc2ccccc2)c1C | -41.6
CC(=O)Nc1ccc(NC(=O)/C(=C/c2ccco2)NC(=O)c2ccccc2)cc1 | 2.2
Cc1cccc(Nc2nnc(SCC(=O)Nc3cccnc3Cl)s2)c1 | -18.1
Cc1ccc(/C=N/N2CCN(c3ccccc3)CC2)cc1 | 4.56
Cc1cc(=O)oc2c3c(ccc12)OC/C3=N/N | 16.4
Cc1ccc(C(=O)COC(=O)CNS(=O)(=O)c2ccc(C)cc2)cc1 | 12.4
Cc1ccc(C2=NN(Cc3nnc(-c4ccccc4)o3)C(=O)SC2)cc1 | -7.79
OCC(CO)(CO)NCC(O)CN1c2ccccc2Sc2ccccc21 (stereo not drawn) | -11.1
O=C(Nc1ccnn1C1CCN(C(=O)c2ccc(C(F)(F)F)cc2)CC1)C1CC1 | -47.4
COc1ccc(-c2cnnc(N/N=C/c3ccc(O)c(O)c3)n2)cc1 | 2.82
Cc1ccc(N(C(=O)Nc2ccccc2)C2=NCC(C)S2)cc1 (stereo not drawn) | -16.2
COc1cccc(OCCNS(=O)(=O)c2cccc([N+](=O)[O-])c2)c1 | -8.19
COc1ccc(/C=C/C(=O)O)cc1S(=O)(=O)N1CCCc2ccccc21 | 28.3
CCN(CC)c1ccc(Nc2cc3n(c(=O)n2)CCc2cc(OC)c(OC)cc2-3)cc1 | -28.6
CC1Sc2ccc(S(=O)(=O)NCCc3ccc(S(N)(=O)=O)cc3)cc2NC1=O (stereo not drawn) | 14.3
